Test results as given in the supplement of paper PMC10126150.
Sequences with one replicate were seen in a single cluster, so their values are uncertain.

Each sequence was assayed on ATP (assay: switch fluorescence ratio, 500 uM ATP over buffer (Cy3 cluster intensity, sum of 5 cycles each) (fold (ratio)); higher = stronger signal-on switching upon ATP binding; sequences stand for … in TCGTCGGCAGCGTCAGATGTGTATAAGAGACAGTTTTTTTTTTTTTTTTTTTTTTTTT…TC). Conditions: aptamer strand: ATP DNA aptamer (quencher-CACCTGGGGGAGTATTGCGGAGGAAGG + anchor), 100 nM annealed; ATP concentration: 500 uM; one replicate.
How it was run: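 Exposure to 500 uM ATP lasted 15 min at 22 °C before imaging, and a selection-buffer image was taken beforehand, for Cy3-labelled switching-strand clusters on a modified Illumina MiSeq flow-cell annealed to 100 nM quencher-labelled ATP aptamer. Five buffer/ATP cycles were run with NaOH stripping and re-annealing between them. The fluorescence ratio per cluster is summed target-cycle over summed buffer-cycle Cy3 intensity, averaged per switch-domain sequence. Clusters outside 100-1000 RFU were excluded.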

Sequence | switch fluorescence ratio
ATGCATGATC | 1.03
ATGATTCTGG | 1.06
AGTAGACTCG | 0.99
TACCGTCTCC | 1.32
ACCAGGTCGG | 1.2
ATTATTTGGA | 1.03
AGTGGATATC | 0.916
TTTTGCATCG | 0.995
ACGTGGTCAA | 0.97
AGGCGGGGGA | 0.961
TGCCTGGCGA | 1.02
ACGGGTAAGG | 0.977
AGGAATATTG | 1.02
TGGATGTTCG | 0.947
TTTTATCTGG | 0.999
CGCTAAAACC | 1.13
TTTTCGCTCG | 1.04
GGGTAATGAA | 1.02
TTCGTCTTGC | 1.02
ACAGACAATA | 1.11
AATCGGACC | 1
TCCGGGATCT | 1.64
ATGAAGTCT | 1.16
CGATATATTT | 0.997
TCGTAGCGAG | 1.18
GAGTGCGGCA | 1.03

Sequence | switch fluorescence ratio
TGTGTTTTTC | 1.04
CACACTTCCG | 1.22
TTGTCAGTGG | 1.05
TGGCTTGGCT | 0.977
CGGCAGCCGT | 1.08
CGCTAATCTA | 1.17
CCTCCTGGGG | 1.75
AGAAAACTTT | 1.04
TTGTCGAAGA | 0.991
AGCACGGATT | 1.02
CCAACGGATA | 1.1
GCACGGATTA | 1.12
TGGGCTAAAA | 1.01
TACCTCTTAG | 1.01
AGTGTTAAAT | 0.981
AAGCCTCGGG | 1.02
GAATAAAAGT | 0.952
CAACGACAGA | 1.04
CAGTAGGT | 1.02
CTGTAGATAA | 1.04
ACAACGATTC | 1.08
CTCTTTAAGG | 1.04
TGTATCATAT | 1.03
GACGTGTATT | 0.997
ACTCACTAAT | 1.2
CGAAACTGCG | 0.988

Sequence | switch fluorescence ratio
TTGTGTCATC | 0.995
GAGGAACGCA | 1.14
GAATTGTAGC | 0.958
TCTACTATAA | 1.03
CACCATCCAA | 1.05
AACACCCCAT | 1.01
GACACGTAGT | 1.04
TTTGAAAGA | 1.01
GGAATAACAA | 0.992
CTAGACTAGG | 1.01
GCTACACACT | 1.32
CTTGAATGAA | 0.966
GTGGTTATAC | 1.1
CCTGAACGTT | 0.992
CATGATTACT | 0.987
GGTTGGTAGT | 0.957
CCGTGCTGCT | 1.05
AGTAAGCGCG | 0.913
CCAACCTGGG | 1.04
GGTAGATTAT | 0.961
ACTGTGAATG | 0.998
AGGCTAATGT | 0.98
TGATTATGCA | 0.971
GCAGTACCTA | 1.1
AAGAGAAGAA | 1.03
GACTAGAAAG | 1.01

Sequence | switch fluorescence ratio
TCTGTTGATC | 0.991
GGGTGATCAT | 0.984
CGTCCCGGT | 1.1
ATTGAATGGG | 1.02
ACTCAGAGCC | 1.05
GAGGCGTCGT | 1.03
TTTGGTAGTC | 1.01
CAGGGTACTC | 1.01
CATTCGGAGC | 1.2
AGGATGGCGC | 0.942
CCGTCCAGCG | 1.22
GGTTGCCCTC | 0.987
TGCCATAAG | 1.02
TACATTATGA | 1.04
TCTGAGGTTG | 1.02
AAACTTCTAT | 0.986
TTAAAATG | 0.964
GGCGGGTTGC | 0.989
CCGTGCAAGA | 4.51
AAATTCAGGA | 1.03
CCCGGGCTT | 1.02
CGAAATAGTA | 1.04
TCGATACTA | 1.01
ACGATCACGG | 1.26
ATACTAACTA | 1.08
TACGGTAATC | 1.13

Sequence | switch fluorescence ratio
TAAGCTATC | 1.13
AGAAGCATAA | 1.14
CTGTTTGGTT | 1.01
TTAGTTAGGA | 1.01
TTAATCAGA | 0.994
GCAGCGTCTT | 0.987
AGATTAGAGG | 0.995
TGACCCAAAG | 1.09
TAGTGGCA | 0.944
CTGGAGTTGT | 1.08
TTAATGGGCT | 1.04
GGGCTTCGCG | 0.978
ATCGGTTGGC | 0.939
ACACGGTTCG | 0.984
ACACGCTGGA | 0.885
GATTAGTTTA | 0.997
CTTCGGTTTG | 1.18
ACTTGTAAAA | 1.04
TGGCCCCGAA | 0.979
TAATTAAGC | 0.997
GGCTCTGG | 1.04
AAGTGGACGT | 0.939
TCTCTGAGCA | 1.19
ATGAACGATG | 1.04
TTACCGGGA | 1.04
GAGGATAATT | 0.998

Sequence | switch fluorescence ratio
TCCTATGCAT | 4.21
CTAATTATAG | 0.959
TTTCCTTTCG | 1.08
GCGTGTCAAC | 1.03
CATCGGGGAA | 1.02
GCTGTGGGTT | 0.972
ATTGGTAGTC | 0.996
GATCTCTTCA | 1.01
TTCAATAGAG | 0.987
ATGATATTCC | 1.13
CGCCACGTAT | 1.05
ACTTACGCGC | 1.04
TATCCTTTTC | 1
AGAGCGAGTG | 1.03
TAACGTGGAC | 1.43
CGAAAGGCTC | 1.35
GAATTTGTAT | 1
GATGGATGAG | 1.01
TGTTTTGT | 1.02
ACAGTACCCC | 1.29
CAGTCAGTTC | 1.03
GATTTTTCTA | 0.961
CTATCTCAG | 1.03
CCACGCTGGT | 1.16
CATGATGGTG | 0.99
GCGGCTTGCT | 1.02

Sequence | switch fluorescence ratio
ATCTTGAAAA | 0.998
AATAGAACGG | 1.03
GAGGGCGCGT | 0.993
GGACCATCCT | 1.2
TGAGGCTGCG | 0.975
GCGATGGGCG | 0.989
CAGCGCTAGG | 1.03
TTAATGGG | 1
AACAGAATCA | 0.984
TATGATTCCT | 1.07
ATGGTGTAAT | 1
GCTCAGCGCT | 1.08
GAATCTGCCA | 1.05
TGGTCATGAA | 0.992
ATTGGCGCAC | 1.09
AGGGCACTCA | 1.07
AGTGAGTACC | 1.01
GTATAATCTG | 1.02
TTCCCAGGAC | 2
TGGAGCCGAG | 1.04
CGGTCCATCA | 0.958
CGCTGTGGGG | 0.976
CCTGCGACGG | 1.28
TACTCACCTC | 1.26
TAATGAAGCT | 1.07
TGTGACCCGA | 1.04

Sequence | switch fluorescence ratio
AGTGCAGCA | 1.08
CCTAGAACGT | 0.938
GTGCTCGCGA | 1.16
TTGAGACACT | 1
GGAGAAAATC | 2.02
AGAACCGTGA | 1.05
AAACCGTCTG | 1.03
ACTGTCGATC | 1
GCCCCCGTCC | 1.22
GTTCTATCTT | 0.944
GCGCAACATA | 1.03
ACAGTGGCCC | 0.974
CTCACAGCGT | 1.02
ATTATGATCA | 0.971
GACGGTTAAT | 1.04
GCACGCGCGT | 0.926
AAACCGAGCT | 1.79
TTCTTAGCTG | 1.03
CCTGCGACGC | 2.05
